According to article PMC4336329 (PLoS ONE, 2015):
Hit rate of the full screen: of about 310,000 compounds, about 2,200 (0.71%) showed an effect of 50% or more. Effects have a minus sign here. This is one part of the list.

target: human ether-à-go-go-related gene (hERG) potassium channel (human, UniProt Q12809); experiment: primary screen, population patch clamp on CHO cells stably expressing hERG
Sequence (Q12809 whole entry, looked up): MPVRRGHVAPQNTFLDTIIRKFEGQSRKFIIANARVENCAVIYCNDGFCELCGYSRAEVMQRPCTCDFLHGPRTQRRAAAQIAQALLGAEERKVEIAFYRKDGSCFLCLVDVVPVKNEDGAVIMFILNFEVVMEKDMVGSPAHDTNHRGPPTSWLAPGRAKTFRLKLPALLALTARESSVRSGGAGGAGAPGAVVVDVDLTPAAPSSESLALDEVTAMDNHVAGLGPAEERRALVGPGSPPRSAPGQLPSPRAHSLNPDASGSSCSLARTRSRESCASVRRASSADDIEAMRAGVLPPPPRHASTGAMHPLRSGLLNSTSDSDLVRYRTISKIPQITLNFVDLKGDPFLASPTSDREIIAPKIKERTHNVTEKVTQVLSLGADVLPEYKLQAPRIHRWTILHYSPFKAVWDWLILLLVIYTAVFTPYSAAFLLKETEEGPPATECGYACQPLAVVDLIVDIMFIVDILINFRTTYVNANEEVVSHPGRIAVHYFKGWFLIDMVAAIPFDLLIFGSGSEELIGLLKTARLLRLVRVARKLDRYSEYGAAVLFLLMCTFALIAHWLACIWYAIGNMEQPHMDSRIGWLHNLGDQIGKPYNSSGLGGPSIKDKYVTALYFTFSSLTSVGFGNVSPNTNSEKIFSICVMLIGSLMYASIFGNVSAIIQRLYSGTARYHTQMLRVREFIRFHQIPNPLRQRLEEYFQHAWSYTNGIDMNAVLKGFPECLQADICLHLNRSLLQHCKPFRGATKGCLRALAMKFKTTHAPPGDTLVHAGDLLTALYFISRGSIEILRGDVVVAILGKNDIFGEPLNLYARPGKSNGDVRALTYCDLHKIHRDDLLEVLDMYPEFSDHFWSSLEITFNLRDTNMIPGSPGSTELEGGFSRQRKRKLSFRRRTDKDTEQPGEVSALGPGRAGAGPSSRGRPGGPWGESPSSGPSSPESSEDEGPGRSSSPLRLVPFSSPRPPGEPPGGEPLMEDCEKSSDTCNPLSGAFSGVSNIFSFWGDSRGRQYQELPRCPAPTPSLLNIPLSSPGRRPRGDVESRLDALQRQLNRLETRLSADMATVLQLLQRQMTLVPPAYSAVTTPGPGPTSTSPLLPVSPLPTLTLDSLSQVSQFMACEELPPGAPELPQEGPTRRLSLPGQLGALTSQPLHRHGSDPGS

Going from `COC(=O)C1=CN(Cc2ccc(OC)cc2)C=C(C(=O)OC)C1c1cc(OC)c(OC)c(OC)c1` to `COc1ccc(C2(CNC(=O)c3ccc(OC)c([N+](=O)[O-])c3)CCOCC2)cc1OC`, the “hERG current change (%, negative = inhibition) at 1uM” value falls from 13.5% to 4.5%.

First: O=C(COc1ccc(F)cc1)N(c1ccccn1)C1CCCCC1
Second: CC(=O)c1ccc(N(C(=O)Cn2nnc(-c3ccccc3)n2)C(C(=O)NC2CCCCC2)c2ccccn2)cc1 (centres unmarked)
The “hERG current change (%, negative = inhibition) at 1uM” value of the first is lower: 6.95% for the first, 9.02% for the second.

First: C=CCNc1nc(-c2sc(NC(=O)CC)nc2C)cs1
Second: O=C(CN1C(=O)C2CC=CCC2C1=O)Nc1nc2ccc(F)cc2s1 (centres unmarked)
The “hERG current change (%, negative = inhibition) at 1uM” value of the first is higher: 8.55% for the first, 6.54% for the second.

First: CCN(CC)CCCNC(=O)c1cn(C)c2ccc(S(=O)(=O)N(C)C3CCCCC3)cc2c1=O
Second: CC(=O)N1c2ccc(S(=O)(=O)N(C)c3cc(C)ccc3C)cc2CC1C (centres unmarked)
The “hERG current change (%, negative = inhibition) at 1uM” value of the first is lower: 12.2% for the first, 13.9% for the second.

First: COC(=O)c1ccc(-c2noc(CN3CCCC(CNC(C)=O)C3)n2)cc1 (centres unmarked)
Second: CC1CCCCC1NC(=O)COC(=O)c1cc(=O)c2ccccc2o1 (centres unmarked)
The “hERG current change (%, negative = inhibition) at 1uM” value of the first is higher: 14.5% for the first, 7.83% for the second.

First: COC(=O)c1c(Cc2ccccc2Cl)c[nH]c1C
Second: C=CCc1ccccc1OCC(=O)N/N=C/c1ccc(OC(C)=O)cc1OC(C)=O
The “hERG current change (%, negative = inhibition) at 1uM” value of the first is lower: 8.16% for the first, 13.6% for the second.

Going from `Cc1cccc(-c2oc3ccc(-c4ccc5c(c4)OCO5)cc3c2C(=O)OCc2ccc(O)cc2)c1` to `CC(OC(=O)c1cccn1C)C(=O)Nc1ccc2c(c1)OCO2` (centres unmarked), the “hERG current change (%, negative = inhibition) at 1uM” value falls from 7.23% to -10.7%.

Going from `C[C@@H]1CN(C(=O)c2cc(COc3cccc(C(F)(F)F)c3)on2)C[C@H](C)O1` to `CC(=O)N1CCN(C(=O)c2ccc(-c3cccc(C(F)(F)F)c3)o2)CC1`, the “hERG current change (%, negative = inhibition) at 1uM” value falls from 2.57% to -19.2%.

Going from `CCCCN(CCCNC(=O)Cn1nc(CC)n2c(cc3sc(C)cc32)c1=O)Cc1ccccc1` to `CCCCn1nc(C(=O)N(CC)CC(=O)Nc2c(F)cccc2F)c2ccccc2c1=O`, the “hERG current change (%, negative = inhibition) at 1uM” value rises from -1.82% to 3.53%.

First: O=C(NCc1ccco1)C1CC(c2c(Cl)cccc2Cl)=NO1 (centres unmarked)
Second: COc1cccc(CN(C)CC(=O)NC(=O)NCc2ccco2)c1
The “hERG current change (%, negative = inhibition) at 1uM” value of the first is higher: 20.9% for the first, 12.6% for the second.

First: CC(=O)N1c2ccc(S(=O)(=O)NCCC(=O)N3CCCC(C)C3)cc2CC1C (centres unmarked)
Second: CCCNC(=O)C1CCC(CNS(=O)(=O)c2cccc3nsnc23)CC1 (centres unmarked)
The “hERG current change (%, negative = inhibition) at 1uM” value of the first is lower: 13.2% for the first, 16.5% for the second.

First: O=C(CSc1c2c(nc3ccccc13)CCC2)N1CCCC1
Second: Cc1ccc(C2(C(=O)N3CCC(n4nc(-c5ccccc5)oc4=O)CC3)CC2)cc1
The “hERG current change (%, negative = inhibition) at 1uM” value of the first is lower: 1.89% for the first, 4.96% for the second.

First: CCOc1ccc(C(=O)NCC(=O)NNC(=O)C2COc3ccccc3O2)cc1OCC (centres unmarked)
Second: CCOc1cc(/C=C/C(=O)Nc2ccc(C(=O)NCCN(CC)CC)cc2)ccc1OCC(C)C
The “hERG current change (%, negative = inhibition) at 1uM” value of the first is lower: 8.79% for the first, 20.9% for the second.

Going from `CN(C)c1nc(SCC#N)nc(N(C)C)n1` to `CC(C)(C)NC(=O)Cn1nnc(-c2ccc(S(C)(=O)=O)cc2)n1`, the “hERG current change (%, negative = inhibition) at 1uM” value falls from 4.35% to -1.92%.

Going from `CC(=O)Nc1ccc(OCC(O)Cn2cncn2)cc1` (centres unmarked) to `COc1ccc(OCC(=O)NC(=S)Nc2ccccc2F)cc1`, the “hERG current change (%, negative = inhibition) at 1uM” value falls from 19% to 3.81%.

First: CS(=O)(=O)Nc1ccccc1C(=O)Nc1ccc2c(c1)OCCO2
Second: Cc1ccc(C(=O)Nc2ccc(O)cc2C(=O)O)cc1
The “hERG current change (%, negative = inhibition) at 1uM” value of the first is lower: 17.2% for the first, 19.6% for the second.

Going from `C[C@@]12N[C@@H](Cc3ccccc31)c1ccccc12.O=C(O)/C=C\C(=O)O` to `O=c1[nH]c(/C=C/c2ccccc2[N+](=O)[O-])nc2ccccc12`, the “hERG current change (%, negative = inhibition) at 1uM” value falls from 13.9% to 1.73%.

Compared with `N#CCC(=O)NNc1c([N+](=O)[O-])cc(C(F)(F)F)cc1[N+](=O)[O-]`, `CNC(CC(=O)c1ccc([N+](=O)[O-])cc1)C(Cl)(Cl)Cl` (centres unmarked) is lower in “hERG current change (%, negative = inhibition) at 1uM” value: 20.1% for the first, 12.6% for the second.

Going from `C=CCOc1ccc(/C=N/NC(=O)C(C)Sc2ccccn2)cc1OC` (centres unmarked) to `Cc1c(NC(=S)N/N=C\c2ccccc2O)c(=O)n(-c2ccccc2)n1C`, the “hERG current change (%, negative = inhibition) at 1uM” value falls from 10.6% to 0.605%.

Going from `Nc1nonc1-n1nnc(C(=O)N/N=C/c2ccc(OCc3ccccc3F)cc2)c1CNc1ccccc1` to `O=C(/C=C(\O)c1ccc(Cl)cc1)C(=O)NNC(=O)C(O)(c1ccccc1)c1ccccc1`, the “hERG current change (%, negative = inhibition) at 1uM” value falls from 19% to -0.849%.

Compared with `COc1ccc(C(=O)C2(C)N(O)C(C)C(c3cccs3)=[N+]2[O-])cc1` (centres unmarked), `CCOc1ccc2[nH]c(=O)c(CN(Cc3cccs3)Cc3nnnn3C(C)(C)CC)cc2c1` is lower in “hERG current change (%, negative = inhibition) at 1uM” value: 7.05% for the first, -15.2% for the second.

Compared with `COc1cccc(N2CC(C(=O)Nc3nnc(SCCN4CCOCC4)s3)CC2=O)c1` (centres unmarked), `Cc1cc(-c2nnc(CCC(=O)N3CCN(Cc4cccc(F)c4)CC3)o2)c(C)o1` is higher in “hERG current change (%, negative = inhibition) at 1uM” value: 5.34% for the first, 6.7% for the second.

Going from `O=CNCC(=O)NCCc1ccc(Cl)cc1` to `CC#CCCCC(=O)Nc1cccc(C(=O)O)c1`, the “hERG current change (%, negative = inhibition) at 1uM” value rises from 9.55% to 14.7%.

Going from `Cc1cc(C)cc(NC(=O)Nc2c(Br)cnn2C)c1` to `CCn1c(=O)c2ccccc2n(Cc2cccc(C)c2)c1=O`, the “hERG current change (%, negative = inhibition) at 1uM” value rises from -13% to 15.6%.

Compared with `CCN1CCC(N(C)C2CCCCC2)CC1`, `CC1CCC(NC(=O)COC(=O)C2CC3CCCC(C2)C3=O)CC1` (centres unmarked) is lower in “hERG current change (%, negative = inhibition) at 1uM” value: 7.09% for the first, 3.94% for the second.

Going from `Cc1cc(Cn2ccnc2)c(C)cc1Cn1ccnc1` to `CC1Cc2ccccc2N1Cc1cccc(S(=O)(=O)N(C)C)c1` (centres unmarked), the “hERG current change (%, negative = inhibition) at 1uM” value rises from 3.61% to 6.58%.

Compared with `Cc1onc(-c2c(F)cccc2Cl)c1C(=O)NC1CCSC1=O` (centres unmarked), `Cc1cc(-c2nnnn2-c2ccc(F)cc2)no1` is higher in “hERG current change (%, negative = inhibition) at 1uM” value: 6.78% for the first, 12.2% for the second.

First: CC(C)(C)C(=O)NC1=NCCS1
Second: c1ccc2c(-c3[nH]ncc3CNCCCn3ncc4ccccc43)cccc2c1
The “hERG current change (%, negative = inhibition) at 1uM” value of the first is higher: 9.65% for the first, 5.16% for the second.
